According to patent publication US8828988B2 (Tetraphase Pharmaceuticals, Inc., priority 2009, dated 2014):
For some assays here: The name of at least one read-out is uncertain. At least one structure is not confirmed: it was looked up by name or label, or the drawing left a doubt.

Assays:
[1] = tested on: S. aureus clinical isolates; experiment: MIC50, MIC90 and MIC range, panel of clinical isolates (Example 20); format: cell-based; design: MIC50 / MIC90: unit not given beside the values; conditions: MRSA, 30 isolates
Description: (§1) The assays were run as follows.
(§2) Both values, as well as the MIC range (the lowest and highest MIC value observed for a collection of organisms), were determined for the isolates listed in Table 3.

[2] = tested on: E. faecalis clinical isolates; experiment: as above; format: cell-based; design: MIC50 / MIC90: unit not given beside the values; conditions: 24 isolates
Description: as §1, §2

[3] = tested on: S. pneumoniae clinical isolates; experiment: as above; format: cell-based; conditions: 19 isolates
Description: as §1, §2

[4] = tested on: E. coli S30 extract system, coupled in vitro transcription/translation, firefly luciferase readout; experiment: In vitro transcription/translation (TnT) assay; format: biochemical; conditions: Table 8
[5] = tested on: tet(K) strains of S. aureus; experiment: MIC, CLSI methodology, recent clinical isolates (Example 21); format: cell-based
Description: as §1
(§3) The antibacterial activities of Compounds MIC values were determined according to CLSI methodology. Recent clinical isolates were obtained from Eurofins-Medinet. Antibiotics were obtained from standard commercial sources.

[6] = tested on: tet(M) strains of S. aureus; experiment: as above; format: cell-based
Description: as §1, §3

[7] = tested on: tet(M) strains of S. pneumoniae; experiment: as above; format: cell-based
Description: as §1, §3

[8] = tested on: tet(M) and tet(S) strains of E. faecalis; experiment: as above; format: cell-based
Description: as §1, §3

[9] = tested on: S. pneumoniae isolates (Eurofins-Medinet, recent clinical isolates); experiment: MIC50 and MIC90 analysis (Example 22); conditions: S. pneumoniae (n = 20)

Compound	MIC50 [1]	MIC90 [1]	MIC50 [2]	MIC90 [2]	MIC50 [3]	MIC90 [3]	E. coli TnT [4]	MIC Range ([1]; in µg/mL)	MIC Range ([2]; in µg/mL)	MIC Range ([3]; in µg/mL)	MIC against tet(K) strains of S. aureus [5]	MIC against tet(M) strains of S. aureus [6]	MIC against tet(M) strains of S. pneumoniae [7]	MIC against tet(M) and tet(S) strains of E. faecalis [8]	MIC Range [9]
C[C@H]1c2cccc(O)c2C(=O)C2=C(O)[C@]3(O)C(=O)C(C(N)=O)=C(O)[C@@H](N(C)C)[C@@H]3[C@@H](O)[C@@H]21 [Doxycycline, doxycycline, reference compound]	0.25	8	8	16	4	16									
CN(C)c1ccc(O)c2c1C[C@H]1C[C@H]3[C@H](N(C)C)C(O)=C(C(N)=O)C(=O)[C@@]3(O)C(O)=C1C2=O [minocycline, reference compound]							3.1 µg/mL								
CN(C)[C@@H]1C(O)=C(C(N)=O)C(=O)[C@@]2(O)C(O)=C3C(=O)c4c(O)c(NCC(F)(F)F)nc(Cl)c4C[C@H]3C[C@@H]12 [Compound 124]	0.5	2	4	4	1	4									
CCCc1nc(N(C)C)c2c(c1O)C(=O)C1=C(O)[C@]3(O)C(=O)C(C(N)=O)=C(O)[C@@H](N(C)C)[C@@H]3C[C@@H]1C2 [Compound 141]	4	4	8	8	4	4									
CN(C)[C@@H]1C(O)=C(C(N)=O)C(=O)[C@@]2(O)C(O)=C3C(=O)c4c(O)c(NCC(C)(C)CN5CCCC5)nc(Cl)c4C[C@H]3C[C@@H]12 [Compound 108]	0.5	2	0.5	2	0.0312	0.125									
CN(C)CC(C)(C)CNc1nc(F)c2c(c1O)C(=O)C1=C(O)[C@]3(O)C(=O)C(C(N)=O)=C(O)[C@@H](N(C)C)[C@@H]3C[C@@H]1C2 [Compound 133]	1	2	1	2	0.13	0.25									
CN(C)[C@@H]1C(O)=C(C(N)=O)C(=O)[C@@]2(O)C(O)=C3C(=O)c4c(O)cccc4[C@@](C)(O)[C@H]3C[C@@H]12 [Tetracycline, tetracycline, reference compound]	0.25						1.7 µg/mL	0.25->32	0.5->32	0.031->32	severely abrogated	severely abrogated	severely abrogated	severely abrogated	0.13->32
CN(C)CC(C)(C)CNc1nc(Cl)c2c(c1O)C(=O)C1=C(O)[C@]3(O)C(=O)C(C(N)=O)=C(O)[C@@H](N(C)C)[C@@H]3C[C@@H]1C2 [Compound 151]	1	2	0.5	2	0.063	0.25									
